Out of some 45,000 compounds screened, about 65 (0.1%) were called active. The call rests on the fitted dose curve; in most records, active means well fitted activation curve with a large enough effect; inconclusive means small, poorly fitted or top-dose-only effect; inactive means no such curve, though single readings can be large or run the other way. This is one part of the list.
target: Galactocerebrosidase (Homo sapiens) (UniProt P54803); test: A Novel Cell-Based Assay to Identify Small Molecules for B -Galactocerebrosidase; details: 145M-Twi-hGALC-G270D cells (Twitcher mouse brain line with human GALC G270D), HMU-beta-Gal fluorescence, 48 h; series mostly up to 57.5 µM; activation: at the top concentration; further: 0% is about no effect; nearly all actives have a fitted effect of over 65% in size
Sequence of UniProt P54803 (P54803 whole entry, looked up): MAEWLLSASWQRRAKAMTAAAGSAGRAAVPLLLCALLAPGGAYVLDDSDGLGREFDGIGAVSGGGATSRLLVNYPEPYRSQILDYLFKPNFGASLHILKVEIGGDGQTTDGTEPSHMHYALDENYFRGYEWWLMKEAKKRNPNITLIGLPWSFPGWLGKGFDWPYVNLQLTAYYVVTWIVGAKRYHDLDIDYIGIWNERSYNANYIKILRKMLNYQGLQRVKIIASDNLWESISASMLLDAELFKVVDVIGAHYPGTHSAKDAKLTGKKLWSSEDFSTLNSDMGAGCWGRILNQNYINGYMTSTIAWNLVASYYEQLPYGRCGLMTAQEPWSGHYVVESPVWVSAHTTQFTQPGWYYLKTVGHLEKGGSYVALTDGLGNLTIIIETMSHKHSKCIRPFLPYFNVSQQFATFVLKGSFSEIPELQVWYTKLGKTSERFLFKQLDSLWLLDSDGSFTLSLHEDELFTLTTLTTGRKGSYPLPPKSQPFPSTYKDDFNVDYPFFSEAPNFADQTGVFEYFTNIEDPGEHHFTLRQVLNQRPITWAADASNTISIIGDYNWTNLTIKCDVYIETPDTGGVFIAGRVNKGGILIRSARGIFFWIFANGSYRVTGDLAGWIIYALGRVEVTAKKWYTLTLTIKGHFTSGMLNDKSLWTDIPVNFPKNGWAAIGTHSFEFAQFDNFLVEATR
How it was run: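 Fluorescence readout: HMU-β-gal cleavage by mutant GALC (0.1 mM final, citrate/phosphate pH 5.2 with 1 mg/mL taurocholate), stopped with carbonate/bicarbonate plus Triton X-100. Cells: murine Twitcher 145M-Twi expressing human G270D GALC; qHTS for activators.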

activation, inactive:
O=C(CCCN1C(=O)c2cccnc2Oc2ccc(Cl)cc21)NCc1ccc(F)cc1 -1.67%, CN1CCN(CCNC(=O)c2cnn(-c3ccc(F)cc3)c2C2CCN(C(=O)OC(C)(C)C)CC2)CC1 -11.6%, Cc1ccc(N2CC(NC(=O)c3cccs3)CC2=O)cc1 (stereo not given) -4.79%, CCCCNC(=O)c1ccc2c(c1)N=C(CC)c1ccccc1S2 -9.87%, Cc1ccc2c(c1)C(=O)OC(C(=O)Nc1ccccc1C(=O)O)C2 (stereo not given) -10.9%, O=C(CN1C(=O)C2(SCC(=O)N2c2ccc(F)cc2)c2ccccc21)NC1CCCCC1 (stereo not given) -22.5%, CCOc1ccc(-n2cc(-c3ccccc3)c3c(NC4CCCC4)ncnc32)cc1 1.9%, CC1=C(c2ccc(C)c(C)c2)S(=O)(=O)N(Cc2ccc(C(=O)Nc3cc(F)ccc3F)cc2)C1=O -12.1%, O=C(Nc1ccccc1)Nc1nnc(SCC(=O)N2CCCCC2)s1 -13.3%, Cc1ccc(N2C(=O)CSC23C(=O)N(CC(=O)NCc2ccccc2)c2ccccc23)cc1 (stereo not given) 6.99%, CCCCc1ccc(NC(=O)CSc2nc(=O)[nH]c3c2CCCC3)cc1 -16.6%, Cc1ccccc1Nc1nc(N)c(C(=O)c2ccccc2Cl)s1 -12.7%, Cc1cc2oc(C(=O)N(Cc3ccc(N(C)C)cc3)Cc3ccco3)c(C)c2cc1Cl -11.6%, COc1cccc(N2CC(NC(=O)COc3ccccc3F)CC2=O)c1 (stereo not given) -14.3%, CCOc1ccc(NC(=O)c2cnc3sc(N4CCOCC4)nn3c2=O)cc1 1.38%, O=C(Nc1cccc(C(=O)OCc2cc(=O)n3nc(C4CC4)sc3n2)c1)c1cccc(Cl)c1 -0.0185%, COc1ccc(Nc2oc(/C=C/c3ccccc3OC)nc2C#N)cc1 -16.5%, Cc1ccc(C)c(NC(=O)CSc2ccc3nc(-c4ccccc4)cn3n2)c1 -3.77%, CCOc1ccc(CCNC(=O)Cn2c(-c3cccs3)cc3ccccc32)cc1OCC -12.6%, COC(=O)CCN(c1ccccc1)C(CNS(=O)(=O)c1ccccc1)c1ccccc1 (stereo not given) -23.3%, CCOc1ccc(S(=O)(=O)N2CCN(Cc3nc4ccc(C)cc4o3)CC2)cc1 -44.3%, O=C(CSc1nc2c([nH]c3ccccc32)c(=O)n1-c1ccccc1F)Nc1cccc(C(F)(F)F)c1 -37%, COc1cc2c(cc1NC(=O)c1ccccc1C)n(C)c(=O)n2C 1.23%, CCSc1nnc(NC(=O)c2cc(=O)c3cc(C)ccc3o2)s1 -19.8%, O=C(CSc1oc(-c2ccc(F)cc2)nc1S(=O)(=O)c1ccccc1)NC1CCCCC1 -12.1%, CCc1ccc(CNC(=O)c2ccc(-c3nc(CSc4ccc(C)cc4)c(C)o3)cc2)cc1 -3.67%, Cc1nc2cc(-c3cccc(F)c3)nn2c(C)c1CCC(=O)NC(C)c1ccccc1 (stereo not given) -21.1%, COc1cc(C(=O)NCCc2sc(-c3cccc(F)c3)nc2C)cc(OC)c1OC -7.32%, O=C(Nc1ccccc1Br)c1cc(CN2CCCC2)on1 8.06%, CCCCOc1ccccc1C1CC(=O)Nc2cc(C)c(C)cc21 (stereo not given) -24%, O=C(CCN1C(=O)c2ccccc2Sc2ncccc21)Nc1ccc(F)cc1 -15.1%, CC(CCc1ccccc1)NC(=O)Cn1ncc2c3ccccc3n(Cc3ccccc3)c2c1=O (stereo not given) 1.83%, CC(C)CNc1ncnc2onc(-c3ccc(Cl)cc3)c12 -9.78%, CCOC(=O)c1ccc(NC(=O)c2oc3c(c2C)-c2nn(Cc4ccccc4Cl)cc2CC3)cc1 -14.8%, COc1ccc(-c2nnc(SCC(=O)Nc3c(C)cccc3C)nc2-c2ccc(OC)cc2)cc1 -11.5%, COc1cccc(CNC(=O)CCn2cnc3ccccc3c2=O)c1 -20.7%, COc1ccc(CN(Cc2ccco2)C(=O)COc2ccccc2OC)cc1 -3.8%, CCc1ccc2occ(CC(=O)Nc3ccc(OC)c(Cl)c3)c2c1 -13.7%, CCOc1ccc(C(=O)Oc2c(Sc3ccccc3)c(C)nn2C(C)(C)C)cc1OCC -18.6%, Cc1nc(SCC(=O)Nc2ccc(C)c(Cl)c2)cc(-c2ccccc2)n1 -15.6%, O=C(Nc1ccccc1Cl)[C@H](CSCc1ccccc1)N1Cc2ccccc2C1=O -13.9%, COc1ccccc1N1CCN(S(=O)(=O)c2ccc(F)c(C(=O)Nc3ccc(Cl)cc3C(F)(F)F)c2)CC1 -3.75%, CC(C)c1ccc(CNC(=O)c2ccc(N3CCCC3)c(NC(=O)NCc3ccccc3)c2)cc1 -8.76%, O=C(c1ccc2c(c1)CCN2S(=O)(=O)c1ccccc1)N1CCN(c2ccccc2F)CC1 -9.27%, CCc1ccccc1-n1cnc2cc(C(=O)NC3CCCCCC3)ccc21 -5.32%, CCCCNC(=O)CCc1c(C)nc2cc(-c3ccccc3)nn2c1C -11.7%, Cc1ccc(OCC(=O)Nc2c(C(=O)c3ccc(Cl)cc3)oc3ccccc23)cc1C -1.5%, CC(=O)N1CCCc2cc(S(=O)(=O)N3CCCC(C(=O)NC(C)C)C3)ccc21 (stereo not given) -20.5%, COc1ccc(N2C(=O)C(CC(=O)Nc3ccccc3)N(CCC3=CCCCC3)C2=O)cc1 (stereo not given) -15.5%, Cc1[nH]c2ccccc2c1C1(O)C(=O)N(Cc2ccccc2)c2ccc(Cl)cc21 (stereo not given) -6.07%, COc1ccc(-c2nnc(SC(C)C(=O)O)o2)cc1 (stereo not given) -2.09%, CSc1ccc(-c2nc3cccc(C)n3c2Nc2ccc3c(c2)OCO3)cc1 -13.6%, O=C(CN1C(=O)CSc2ccc(S(=O)(=O)N3CCCC3)cc21)NCc1ccccc1Cl -18.9%, COc1ccc(-n2nc(C(=O)Nc3ccc(C(C)=O)cc3)nc2-c2ccccc2)cc1 -11.4%, CCOc1ccc(C2c3c(oc4ccc(C)cc4c3=O)C(=O)N2CCCN(C)C)cc1OC (stereo not given) 1.71%, Cc1cc(-c2ccc(S(=O)(=O)Nc3ccc(Cl)cc3)cc2)on1 -8.29%, CC(C)Oc1ccc(CNC(=O)c2sc3ncccc3c2-n2cccc2)cc1 -9.69%, CO[C@H]1C=CO[C@@]2(C)Oc3c(C)c(O)c4c(O)c(c(/C=N/N5CCN(C)CC5)c(O)c4c3C2=O)NC(=O)/C(C)=C\C=C[C@H](C)[C@H](O)[C@@H](C)[C@@H](O)[C@@H](C)[C@H](OC(C)=O)[C@@H]1C -17%, Cc1cn(C)c(CC(=O)Nc2ccc(F)cc2Cl)c1C(=O)O -5.44%, O=S(=O)(c1ccc(Cl)cc1)c1nc(-c2cccs2)oc1SCc1ccccc1F -6.51%, COc1ccc(-c2nnc(SCCOc3ccccc3C)o2)cc1OC -18%, Cc1ccc(OCC(=O)Nc2nonc2-c2ccc(Br)cc2)cc1C -11.8%, Cc1cc(C)cc(OCCSc2nc3ccc(NC(=O)COc4ccccc4)cc3s2)c1 -25.8%, CCOC(=O)c1c(NC(=O)C2c3ccccc3Oc3ccccc32)sc2c1CCC(CC)C2 (stereo not given) -1.74%, COc1ccc(N2CCN(C(=O)C(C)n3nc(C)c4sc5ccccc5c4c3=O)CC2)cc1 (stereo not given) -13.1%, CCc1ccc(NC(=O)Cn2nc(SC)c(S(=O)(=O)c3ccc(OC)cc3)c2N)cc1 -16.7%, CCOC(=O)C(CC)N1CCN(Cc2ccc(F)cc2)C(=O)C1=O (stereo not given) -14.9%, COc1ccc(-c2ccc(NS(=O)(=O)c3cc(C)c(C)cc3C)cc2)nn1 -13%, O=C(Nc1nc2c(F)cccc2s1)c1ccc(S(=O)(=O)N2CCCc3ccccc32)cc1 -5.6%, CCn1nc(C)c2c(-c3ccccc3)cc(=O)n(C(C)C(=O)Nc3cc(C)ccc3C)c21 (stereo not given) -14.1%, O=C(c1ccc(F)cc1)C1CCN(CCn2c(=O)[nH]c3ccccc3c2=O)CC1 -11.7%, CC(=O)C1=C(c2cccc([N+](=O)[O-])c2)N(C(C)=O)n2c(nnc2-c2ccc(C)cc2)S1 -10.5%, CCS(=O)(=O)NCC(c1ccco1)N1CCN(c2ccc(F)cc2)CC1 (stereo not given) -8.34%, CCOC(=O)c1c(S(=O)(=O)N2CCCC(C(=O)N3CCN(c4cc(C)ccc4C)CC3)C2)c(C)n(C)c1C (stereo not given) -20.8%, CCc1ccc(NC(=O)Cn2c(=O)n(CCCC(=O)NCc3ccc4c(c3)OCO4)c(=O)c3ccccc32)cc1 -1.57%, CC(=O)c1cccc(NC(=O)CCn2nc(C)c(S(=O)(=O)N(C)C)c2C)c1 -3.56%, CC(C)Nc1nc2c(S(=O)(=O)c3cccc(Cl)c3)nnn2c2ccsc12 -11.2%, Cc1ccc(C(=O)NCC(c2cccs2)S(=O)(=O)c2ccccc2)cc1C (stereo not given) 2.9%, CC(C)c1ccc(S(=O)(=O)N2CCN(CC(=O)Nc3ccccc3C(F)(F)F)CC2)cc1 -9.99%, CC(C)CCNC(=O)c1ccc2nc(CCc3ccccc3)oc2c1 -11.2%, Cc1cc2nc3c(=O)[nH]c(=O)nc-3n(C[C@H](O)[C@H](O)[C@H](O)CO)c2cc1C -6.15% [at 23.8 µM], COC(=O)c1nnn(CC(=O)Nc2c(C)cccc2C)c1N -18.2%, COc1cc(CN(C(=O)Nc2cccc(Cl)c2)c2ccccn2)cc(OC)c1OC -22.7%, COC(=O)c1ccc(C(=O)OC)c(NC(=O)c2c(-c3ccccc3)noc2C)c1 16.7%, COc1ccc(CCNc2nc(SCc3ccccc3F)nc3ccccc23)cc1OC -8.55%, CCCCC(CC)CNC(=O)CCCCn1c(=O)[nH]c2ccsc2c1=O (stereo not given) -17%, COC(=O)c1sc(N2C(=O)c3oc4ccc(C)cc4c(=O)c3C2c2ccc(O)c(OC)c2)nc1C (stereo not given) -15.6%, CCOC(=O)c1c(C)oc2nc(C)nc(NCCc3ccc(OC)c(OC)c3)c12 -11.4%, CCOC(=O)Cc1c(C)nc2cc(-c3ccc(C(C)(C)C)cc3)nn2c1C 4.83%, Cc1csc2nc(COc3ccc(NC(=O)C(C)C)cc3)cc(=O)n12 0.771%, CCc1ccc(NC(=O)C2CCCN2S(=O)(=O)c2ccc3nc(-c4ccccc4)[nH]c3c2)cc1 (stereo not given) -23.8%, CCN(CC)S(=O)(=O)c1ccc2c(c1)c(=O)c(C(=O)NCCc1ccccc1)cn2C -13.8%, COc1ccc(C2CC(=O)c3cnc4c(-c5ccc(F)cc5)c(C)nn4c3C2)cc1OC (stereo not given) -13.7%, COc1ccc(-n2ncc(C(=O)N3CCN(C4CCCCC4)CC3)c2C2CCN(C(=O)OC(C)(C)C)CC2)cc1 1.88%, Cc1ccccc1NC(=O)CC1NCCNC1=O (stereo not given) -16.8%

— PubChem BioAssay AID1159614 (National Center for Advancing Translational Sciences (NCATS), 2016)
